Reference: PubChem BioAssay AID485313 (National Center for Advancing Translational Sciences (NCATS), 2010)
The campaign covered roughly 320,000 compounds. About 7,600 (2.4%) were called active. Inconclusive means that the source gave no clear call. Such entries were picked first, then a sample of the others. Calls follow the shape of the dose curve; as a rule, active = well fitted activation curve with a large enough effect; inconclusive = small, poorly fitted or top-dose-only effect; inactive = no such curve, though single readings can be large or run the other way. Potencies of inconclusive entries are left out as doubtful fits.
Potency is read from the fitted curve at half-maximal effect; tags tell the direction and shape of the fitted curve.

Assay: qHTS Assay for NPC1 Promoter Activators; also: nearly all actives have a fitted effect of over 60% in size;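 as to activation: reporter is driven by a mutant NPC1 promoter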
Settings: Huh7 NPC1 promoter luciferase reporter, 24 h; series mostly up to 9.22 µM
In short: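 Huh7 reporter cells (NPC1 promoter driving luciferase) are dosed with compound for 24 h at 37 °C, 5% CO2; luciferase detection reagent is then added and luminescence measured after 10 min at ambient temperature.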
In the case of O=C(Nc1cccc(S(=O)(=O)N2CCCCC2)c1)c1ccc(S(=O)(=O)C(F)F)cc1, the Potency is reported as “inactive”. In the case of Cc1nc(SCC(=O)c2ccc(Cl)s2)c2oc3ccccc3c2n1, the Potency is reported as inconclusive [activator, single point]. With CC(=O)Nc1ccc(-c2nc3c(C)cccc3[nH]2)cc1 the Potency was active: 2.51 µM. With CCOC(=O)c1ccc(N=C2S/C(=C\c3cc(C)n(-c4cccnc4)c3C)C(=O)N2C)cc1 the Potency was “inactive”. In the case of CC(C)c1ccc(/C=N/NC(=O)C2CCCC2)cc1, the Potency is reported as active: 2 µM. With COc1cc(CCC(C)=O)ccc1OC(=O)c1c(F)cccc1Cl the Potency was inconclusive [activator, single point]. For CCC(CCC(=O)Nc1ccc(S(N)(=O)=O)cc1)C(=O)O (stereo not drawn), the Potency was “inactive”. For CN(C)c1ccc(C#Cc2ccc3cc(CCO)oc(=O)c3c2)cc1, the Potency was active: 3.98 µM. In the case of CCN1CCN(S(=O)(=O)Cc2ccccc2Cl)CC1, the Potency is reported as “inactive”. In the case of CCn1c(=O)c(C(=O)CC#N)c(N)n(Cc2ccccc2)c1=O, the Potency is reported as “inactive”. With O=C(N/N=C/c1ccncc1)c1cccc(S(=O)(=O)Nc2ccc(Cl)cc2)c1 the Potency was “inactive”. With Cc1ccc(-c2cc(C(=O)NCc3cccnc3)no2)cc1 the Potency was inconclusive [activator, single point]. In the case of COc1ccc(CCNC(=S)N2CCC(C(=O)c3ccc(F)cc3)CC2)cc1OC, the Potency is reported as “inactive”. With Cn1/c(=N/NC(=O)c2ccccc2Br)sc2ccccc21 the Potency was inconclusive [activator, single point]. In the case of COn1c(-c2ccc(Cl)cc2)nc2ncccc21, the Potency is reported as inconclusive [activator, partial curve]. In the case of Oc1cccc(-c2nc3c4c(ncn3n2)-c2ccccc2CC42CCCC2)c1, the Potency is reported as “inactive”. For Cc1ccccc1OCC(=O)OCC(=O)c1ccc(OCc2ccccc2)cc1, the Potency was inconclusive [activator, single point]. With COC(=O)c1c(NC(=O)COC(=O)c2ccc(Cl)nc2)sc(C)c1C the Potency was “inactive”. For COc1ccc(Nc2nc3ccccc3s2)cc1, the Potency was active: 2.51 µM. For CC1=CC(=C(C#N)c2nc3ccccc3s2)C=C(C)N1c1ccc(F)cc1F, the Potency was inconclusive [activator, single point]. In the case of CC(C)Nc1nc(-c2ccccc2)nc(-n2ccnc2)n1, the Potency is reported as inconclusive [activator, single point]. In the case of COc1ccccc1/C=C1\N=C(C(C)(C)C)OC1=O, the Potency is reported as “inactive”. For O=C(c1ccccc1)[C@H]1[C@H](c2ccccc2)[C@@]2(N=C(c3ccccc3)OC2=O)C2c3ccccc3C=NN21 (stereo partly drawn), the Potency was active: 3.98 µM. In the case of Cc1cccc(-c2noc(-c3ccc(F)cc3)n2)c1, the Potency is reported as active: 0.1 µM. In the case of Nc1cccc(/C=C/c2ccncc2)c1, the Potency is reported as inconclusive [activator, single point]. With Cc1nc(SCc2cccc(Oc3ccccc3)c2)n[nH]1 the Potency was inconclusive [activator, single point]. In the case of O=S(=O)(Cc1ccccc1)N1CCN(Cc2ccc(Br)cc2)CC1, the Potency is reported as inconclusive [activator, partial curve]. In the case of O=C(Nc1nc(=S)ss1)c1ccc(Cl)cc1Cl, the Potency is reported as inconclusive [activator, single point]. With C/C(=N/NC(=O)c1ccncc1)c1ccc(NC(=O)c2ccc(Cl)cc2Cl)cc1 the Potency was inconclusive [activator, partial curve]. With Oc1cccc2ccc(/C=C/c3c(F)cccc3Cl)nc12 the Potency was inconclusive [activator, single point]. For CCOc1ccc(CN2C(=O)c3ccccc3C2C(=O)NCC2CCCO2)cc1 (stereo not drawn), the Potency was “inactive”. For Nc1ccccc1Nc1ccncc1[N+](=O)[O-], the Potency was “inactive”. In the case of COc1ccc2c(c1OC)C(=O)N(c1cccc(C(F)(F)F)c1)C2, the Potency is reported as inconclusive [activator, single point]. In the case of Cc1cnc(NC(=O)c2cccs2)s1, the Potency is reported as inconclusive [activator, partial curve]. For O=C(O)c1ccc(/C=C/c2ccc3cccc(O)c3n2)cc1, the Potency was active: 3.55 µM. For O=C(CNC(=S)N(Cc1ccccc1)Cc1cccnc1)NC1CCCC1, the Potency was “inactive”. In the case of O=C(COc1ccc(Br)cc1)N1CCc2ccccc21, the Potency is reported as inconclusive [activator, partial curve]. In the case of Cc1ccc(C(=O)Nn2cnc3ccccc3c2=O)cc1C, the Potency is reported as active: 3.16 µM. In the case of Cc1cc(NC(=O)COc2ccccc2C)no1, the Potency is reported as active: 3.16 µM. With C/C(=N\NC(=O)C1CC1)c1ccc(NC(=O)c2ccc(Br)o2)cc1 the Potency was inconclusive [activator, single point]. For O=C(OCC(=O)N1CCc2ccccc21)c1ccc([N+](=O)[O-])cc1, the Potency was “inactive”. In the case of CCOCc1nnc(NC(=O)c2cccc(OC)c2)s1, the Potency is reported as “inactive”. For O=C(C1CC(c2ccc(F)cc2)=NO1)N1CCCCC1 (stereo not drawn), the Potency was active: 3.16 µM. In the case of C/C(=N\OCc1ccc(C#N)cc1)c1ccc(S(=O)(=O)N(C)C)cc1, the Potency is reported as inconclusive [activator, single point]. For COc1ccc(-c2cc(C(=O)O)nc3ccc4ccccc4c23)cc1OC, the Potency was “inactive”. For Cc1ccc(-c2nn(-c3ccccc3)cc2CO)o1, the Potency was inconclusive [activator, single point]. For CC(=O)n1c(C=Nc2ccc(Cl)cc2)c(O)c2ccccc21, the Potency was inconclusive [activator, single point]. For C=CC(=O)c1ccc(CCCCCC)cc1, the Potency was “inactive”. For O=C(COC(=O)c1ccc(Cl)cc1)NC1CCCCCC1, the Potency was “inactive”. For O=C(Nc1ccc(Cl)c([N+](=O)[O-])c1)c1ccc2c(c1)OCCO2, the Potency was inconclusive [activator, single point]. For Cc1ccccc1NC(=S)N(Cc1ccco1)C(C)c1ccccn1 (stereo not drawn), the Potency was “inactive”. For CCn1cnc2cc(NCc3ccc(OC)cc3)ccc21, the Potency was inconclusive [activator, partial curve]. For CCOc1ccc(NS(=O)(=O)c2ccc(C(=O)NCC(c3ccc(OC)cc3)N3CCOCC3)cc2)cc1 (stereo not drawn), the Potency was “inactive”. For COc1ccc2c(c1)C(=O)CC(c1ccc3c(c1)OCCO3)O2 (stereo not drawn), the Potency was inconclusive [activator, single point]. With Cc1cccc(NC(=O)c2ccc3c(c2)OCCO3)n1 the Potency was active: 1.41 µM. For O=C(/C=C/Nc1ccc(Oc2ccccc2Cl)cc1)c1ccco1, the Potency was active: 3.55 µM. In the case of COc1ccc(-c2cn3nc(C)c(C)nc3n2)cc1OC, the Potency is reported as inconclusive [activator, single point]. With Cc1csc(NC(=O)c2ccc(OCC3CCCO3)cc2)n1 (stereo not drawn) the Potency was inconclusive [activator, partial curve]. With O=C(Nc1nc2ccc([N+](=O)[O-])cc2s1)c1ccncc1 the Potency was active: 1.41 µM. For O=C(CN1C(=O)COc2ccc(S(=O)(=O)N3CCCC3)cc21)NCc1ccccn1, the Potency was “inactive”. For Nc1cc(N)nc(SCC(=O)Nc2cccc(S(=O)(=O)N3CCCCC3)c2)n1, the Potency was “inactive”. With C/C(=N\Nc1nc(C)cc(-c2ccccc2)n1)c1ccc(C)o1 the Potency was “inactive”. With Cc1oc(-c2cccc(Cl)c2)nc1CN1CCC(C(=O)NC2CC2)CC1 the Potency was inconclusive [activator, partial curve]. For CC(C)C(OC(=O)c1ccccc1)c1nccc2ccccc12 (stereo not drawn), the Potency was inconclusive [activator, partial curve]. With Cc1ccc(C(=O)O/N=C(\N)c2ccccn2)cc1Cl the Potency was active: 1.58 µM. In the case of O=C(NCCc1ccccc1)c1ccc2c(c1)OCO2, the Potency is reported as inconclusive [activator, full curve, poor fit]. For CCC(C)c1ccc(NC(=S)NN2CCOCC2)cc1 (stereo not drawn), the Potency was inconclusive [activator, single point]. In the case of CCOc1ccc2nc(NC(=O)C3CCN(C(=O)c4ccco4)CC3)sc2c1, the Potency is reported as inconclusive [activator, single point]. In the case of Cc1oc(CC(C)C)cc1C(=O)Nc1ccc(C(=O)O)cc1, the Potency is reported as inconclusive [activator, partial curve]. With COc1ccc(C(=O)/C=C2\NCC3c4ccccc4CCN3C2=O)cc1 (stereo not drawn) the Potency was “inactive”. In the case of COC(=O)Nc1nnc(-c2ccccc2Cl)s1, the Potency is reported as inconclusive [activator, partial curve]. With Cc1cccc(-n2ncc3c(NCc4ccccc4)ncnc32)c1 the Potency was “inactive”. In the case of CSc1ccc(NC(=O)NCc2ccccc2)cc1, the Potency is reported as active: 4.47 µM. In the case of CC(C)c1ccc(NCCC(=O)c2cccs2)cc1, the Potency is reported as inconclusive [activator, partial curve]. With COC(=O)c1cc2c(C(F)(F)F)nn(C)c2s1 the Potency was inconclusive [activator, single point]. For O=C(Nc1ccc(F)c(Cl)c1)c1ccc2c(=O)n3c(nc2c1)CCCCC3, the Potency was active: 3.16 µM. With Cc1c(-c2ccccc2)c(=O)oc2cc(O)ccc12 the Potency was “inactive”. With COc1ccc(-n2cc(C(=O)c3ccccc3O)cn2)cc1 the Potency was inconclusive [activator, partial curve]. For CCCCNCCOCCSc1ccc(Cl)cc1, the Potency was “inactive”. For COc1cccc(NC(=O)CN(C)C(=O)c2cc(-c3ccc(C)o3)nc3ccccc23)c1, the Potency was “inactive”. With Cc1cc(-c2nc3ccccc3[nH]2)ccc1N the Potency was active: 0.891 µM. In the case of CCc1ccc(NC(=O)c2cnc3scc(C)n3c2=O)cc1, the Potency is reported as inconclusive [activator, partial curve]. For Cc1ccc(C2=NN(S(C)(=O)=O)C(c3ccc4nccnc4c3)C2)cc1 (stereo not drawn), the Potency was inconclusive [activator, partial curve].
